Measured values taken from the antibiotic and cytotoxicity screens of Wong et al. (2023).
Some of the results follow.

Assays:
HSkMC = human skeletal muscle cells; experiment: cytotoxicity call (relative viability < 0.9); conditions: 10 µM
HepG2 = experiment: cytotoxicity call (relative viability < 0.9); conditions: 10 µM
S. aureus RN4220 = experiment: growth inhibition call (relative growth <= 0.2); conditions: 50 µM

Cc1cccc(S(=O)(=O)N2C[C@H](O)COC[C@H]3O[C@H](CC(=O)NCCCN4CCOCC4)CC[C@@H]32)c1
inactive: cytotoxicity call (HSkMC) | cytotoxicity call (HepG2) | growth inhibition call (S. aureus RN4220)

Nc1nonc1C(=O)N1CCCCC1
inactive: cytotoxicity call (HSkMC) | cytotoxicity call (HepG2) | growth inhibition call (S. aureus RN4220)

COCCNC(=O)C[C@H]1CC[C@H]2[C@@H](COc3ccc(NC(=O)Nc4cccc(F)c4)cc3C(=O)N2C)O1
inactive: cytotoxicity call (HSkMC) | cytotoxicity call (HepG2) | growth inhibition call (S. aureus RN4220)

C[C@@]1(C2CC2)NC(=O)NC1=O
inactive: cytotoxicity call (HSkMC) | cytotoxicity call (HepG2) | growth inhibition call (S. aureus RN4220)

Cc1noc(C)c1NC(=O)Nc1ccc2c(c1)CC(=O)N([C@@H](C)CO)C[C@H](C)[C@H](CN(C)Cc1ccc(C(=O)Nc3ccccc3N)cc1)O2
inactive: cytotoxicity call (HSkMC) | cytotoxicity call (HepG2) | growth inhibition call (S. aureus RN4220)

Cc1cnc2c(c1NCCN(C)C)c(=O)n(C)c(=O)n2C
inactive: cytotoxicity call (HSkMC) | cytotoxicity call (HepG2) | growth inhibition call (S. aureus RN4220)

C[C@@H]1CN([C@@H](C)CO)C(=O)c2cc(NS(=O)(=O)c3ccccc3)ccc2O[C@H]1CN(C)Cc1ccc(Oc2ccccc2)cc1
inactive: cytotoxicity call (HSkMC) | cytotoxicity call (HepG2) | growth inhibition call (S. aureus RN4220)

O=C(C[C@H]1C[C@H]2c3cc(NC(=O)Nc4ccc(C(F)(F)F)cc4)ccc3O[C@H]2[C@H](CO)O1)NC1CCCCC1
inactive: cytotoxicity call (HSkMC) | cytotoxicity call (HepG2) | growth inhibition call (S. aureus RN4220)

C[C@H](CO)N1C[C@H](C)[C@H](CN(C)C(=O)C2CCCCC2)OCCCC[C@H](C)Oc2ccc(NS(=O)(=O)c3ccc(F)cc3)cc2C1=O
inactive: cytotoxicity call (HSkMC) | cytotoxicity call (HepG2) | growth inhibition call (S. aureus RN4220)

COc1ccc(S(=O)(=O)N(C)C[C@@H]2OCCCC[C@H](C)Oc3ccc(NC(=O)CCC(F)(F)F)cc3C(=O)N([C@@H](C)CO)C[C@@H]2C)cc1
inactive: cytotoxicity call (HSkMC) | cytotoxicity call (HepG2) | growth inhibition call (S. aureus RN4220)

C[C@@H]1CN([C@@H](C)CO)C(=O)c2cc(NC(=O)c3ccncc3)ccc2O[C@@H](C)CCCCO[C@@H]1CN(C)S(=O)(=O)c1cn(C)cn1
inactive: cytotoxicity call (HSkMC) | cytotoxicity call (HepG2) | growth inhibition call (S. aureus RN4220)

C[Se]CCC(N)C(=O)O (stereo not given)
inactive: cytotoxicity call (HSkMC) | cytotoxicity call (HepG2) | growth inhibition call (S. aureus RN4220)

COCC(=O)N(C)C[C@H]1Oc2cc(C#C[C@@H](C)O)ccc2S(=O)(=O)N([C@H](C)CO)C[C@@H]1C
inactive: cytotoxicity call (HSkMC) | cytotoxicity call (HepG2) | growth inhibition call (S. aureus RN4220)

CC(C)NC(=O)Nc1cccc2c1O[C@H](CN(C)S(=O)(=O)c1cccs1)[C@@H](C)CN([C@@H](C)CO)C2=O
inactive: cytotoxicity call (HSkMC) | cytotoxicity call (HepG2) | growth inhibition call (S. aureus RN4220)

C[C@H]1CN([C@@H](C)CO)C(=O)c2cc(C#Cc3cccnc3)cnc2O[C@H]1CN(C)Cc1ccc(F)cc1
inactive: cytotoxicity call (HSkMC) | cytotoxicity call (HepG2) | growth inhibition call (S. aureus RN4220)
